Assay results taken from PubChem BioAssay AID624417 (National Center for Advancing Translational Sciences (NCATS), 2012).
Where “and” joins values, the source holds several entries; their conditions need not be identical. Equal values may be shown once. Among all 410,000 compounds or so, about 6,400 (1.6%) were called active. Inconclusive results, whose numbers are uncertain, are shown with a selection of clear calls. Calls follow the shape of the dose curve; as a rule, active = well fitted inhibition curve with a large enough effect; inconclusive = small, poorly fitted or top-dose-only effect; inactive = no such curve, though single readings can be large or run the other way. Potencies beside an inconclusive call are fits to weak or partial responses and may not hold up.

molecular target: Glucagon-like peptide 1 receptor (Homo sapiens) (UniProt P43220); experiment: qHTS of GLP-1 Receptor Inverse Agonists (Inhibition Mode); settings: HEK293 GLP-1R CRE-luciferase, luminescence, 24 h, GLP-1R form is constitutively active; series mostly up to 38.3 µM; also: nearly all actives have a fitted effect of over 55% in size
Sequence of UniProt P43220 (P43220 whole entry, looked up): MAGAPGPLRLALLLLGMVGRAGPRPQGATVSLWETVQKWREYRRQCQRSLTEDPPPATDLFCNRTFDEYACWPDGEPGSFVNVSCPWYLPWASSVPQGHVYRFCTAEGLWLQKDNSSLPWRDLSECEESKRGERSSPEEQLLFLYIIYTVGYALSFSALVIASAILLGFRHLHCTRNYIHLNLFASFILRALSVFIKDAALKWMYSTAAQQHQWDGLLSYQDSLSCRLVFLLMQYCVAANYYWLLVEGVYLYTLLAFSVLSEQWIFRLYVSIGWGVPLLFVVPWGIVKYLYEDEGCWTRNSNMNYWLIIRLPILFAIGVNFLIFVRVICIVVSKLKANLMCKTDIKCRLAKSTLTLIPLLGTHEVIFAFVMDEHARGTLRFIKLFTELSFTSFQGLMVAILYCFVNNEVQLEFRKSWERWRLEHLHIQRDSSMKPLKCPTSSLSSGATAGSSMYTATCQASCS
In short: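 Constitutively active GLP-1R drives a cAMP-responsive luciferase in stably transfected HEK293 cells; test compounds are added after overnight (12 h) attachment and left 24 hr, and signal loss in luminescence marks inhibition.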
Potency is read from the fitted curve at half-maximal effect; tags tell the direction and shape of the fitted curve.

Row | SMILES | Potency
1 | Cc1cccc(NC(=O)Nc2ccc(S(N)(=O)=O)cc2)c1 | inconclusive: 11.2 µM [inhibitor, single point]
2 | CCn1c(SCc2nc(-c3cccs3)no2)nnc1-c1c[nH]c2ccccc12 | inconclusive: 7.94 µM [inhibitor, partial curve, poor fit]
3 | CCCNCc1cc(OC)c(OCC(=O)Nc2ccccc2)cc1Br | inconclusive: 25.1 µM [inhibitor, partial curve, poor fit]
4 | COc1ccc(/C(C)=N/Nc2nc(C)cc(-c3ccccc3)n2)cc1 | inconclusive: 3.16 µM [inhibitor, full curve, poor fit]
5 | O=C1C(NS(=O)(=O)c2ccc(Br)cc2)=C(N2CCCCC2)C(=O)c2ccccc21 | inconclusive: 10 µM [inhibitor, partial curve, poor fit]
6 | COc1ccccc1OC(C)C(=O)N1CCC(c2nc3ccccc3s2)CC1 (centres undefined) | inconclusive: 10 µM [inhibitor, partial curve, poor fit]
7 | OCCN1CCN(c2ncnc3ccc(Br)cc23)CC1 | inconclusive: 11.2 µM [inhibitor, partial curve, poor fit]
8 | CCCOP(=O)(c1ccc(N(C)C)cc1)C(Nc1ccccc1)c1ccc(C)cc1 (centres undefined) | inconclusive: 10 µM [inhibitor, single point]
9 | CCOc1ccc(NC(=O)c2ccc3nc(C(C)C)oc3c2)cc1 | inconclusive: 28.2 µM [inhibitor, single point]
10 | Cc1cc(C=O)c(C)n1-c1ccc(NC2CCCC2)c([N+](=O)[O-])c1 | inconclusive: 28.2 µM [inhibitor, single point]
11 | c1ccc(C2=NNC(=NCc3ccc4c(c3)OCO4)SC2)cc1 | inconclusive: 7.94 µM [inhibitor, partial curve]
12 | CC(C)C1C(=O)N(Cc2cn(CCC3OCCO3)nn2)CCS(=O)(=O)N1Cc1ccc(-c2ccc(F)cc2)cc1 (centres undefined) | inconclusive: 28.2 µM [inhibitor, single point]
13 | O=C(CNC1C(=O)Nc2ccccc21)Sc1ccccc1 (centres undefined) | inconclusive: 22.4 µM [inhibitor, single point]
14 | COc1ccc(Cn2c(SCc3ccc(C(=O)NC4CCCC4)cc3)nc3ccncc32)cc1 | inconclusive: 10 µM [inhibitor, single point]
15 | CCOc1ccc(C(=O)C2CCN(C(=O)c3ccc([N+](=O)[O-])cc3)CC2)cc1 | inconclusive: 7.94 µM [inhibitor, partial curve]
16 | Cc1ccccc1C(=O)Nc1ccccc1NC(=O)c1ccccc1C | inconclusive: 28.2 µM [inhibitor, single point]
17 | CCCn1c(N)[n+](CC(=O)c2ccco2)c2ccccc21 | inactive
18 | O=C(C[C@H]1C[C@H](C(=O)N2CCCCC2)[C@@]2(CCc3ccccc3)c3[nH]c4ccc(Cl)cc4c3CCN2C1=O)NCCCn1ccnc1 | inconclusive: 22.4 µM [inhibitor, single point]
19 | O=C(NC1CSCC1OC(=O)c1ccccc1)c1ccccc1 (centres undefined) | inconclusive: 25.1 µM [inhibitor, single point]
20 | O=C(Nc1cccc(S(=O)(=O)N2CCCCC2)c1)c1cc2ccccc2o1 | inconclusive: 12.6 µM [inhibitor, partial curve, poor fit]

Row | SMILES | Potency
21 | COCCN1C(=O)C(CC(=O)Nc2ccc(C(=O)O)cc2)SC1=Nc1ccccc1 (centres undefined) | inactive
22 | Cc1ccc(-c2cc(C(F)(F)F)n3nc(C(=O)N4CCN5CCCC5C4)cc3n2)cc1 (centres undefined) | inconclusive: 10 µM [inhibitor, partial curve, poor fit]
23 | S=C(Nc1cccnc1)NC1CC2CCC1C2 (centres undefined) | inconclusive: 31.6 µM [inhibitor, single point]
24 | COC(=O)c1cccc(-n2c(CCC(=O)O)ccc2-c2ccc(OC)cc2)c1 | inconclusive: 2 µM [inhibitor, full curve]
25 | CCOC(=O)c1cc(-c2ccccc2)n(CCCC(=O)Nc2ccc(C(C)C)cc2)c1C | inconclusive: 12.6 µM [inhibitor, single point]
26 | CN(C)c1ccc(-c2csc(C(O)c3ccc(F)c(F)c3)n2)cc1 (centres undefined) | inconclusive: 10 µM [inhibitor, single point]
27 | Cc1ccc(CSc2nnc(SCC(=O)N/N=C/c3ccc(C(=O)O)cc3)s2)cc1 | inconclusive: 3.55 µM [inhibitor, partial curve, poor fit]
28 | CCCCOc1ccc(S(=O)(=O)Nc2ccc(-c3ccc(N4CCCCCC4)nn3)cc2)cc1 | inconclusive: 2.24 µM [inhibitor, full curve]
29 | COc1cccc(CNC(=O)CCc2cn(Cc3ccccc3Cl)c3ccccc23)c1 | inconclusive: 22.4 µM [inhibitor, single point]
30 | CC1(C)CC2CC(C)(CN2S(=O)(=O)c2cccc(C(=O)OCC(N)=O)c2)C1 (centres undefined) | inactive
31 | O=S(=O)(c1ccc(F)cc1)N1CCN(C(=S)NCCc2ccccc2)CC1 | inconclusive: 28.2 µM [inhibitor, single point]
32 | CC(C)Cc1nc(SCC(=O)N2CCOCC2)c2c(=O)n(C)c(=O)n(C)c2n1 | inactive
33 | O=C(NCc1ccc2c(c1)OCO2)Nc1ccc2nsnc2c1 | inconclusive: 28.2 µM [inhibitor, single point]
34 | CCOC(=O)C1CCN(C(=O)C(C)N(c2ccc(Oc3ccccc3)cc2)S(C)(=O)=O)CC1 (centres undefined) | inconclusive: 11.2 µM [inhibitor, partial curve, poor fit]
35 | Cn1c(Cn2nnc3ccccc32)nnc1SCC(=O)N1c2ccccc2Sc2ccccc21 | inconclusive: 12.6 µM [inhibitor, partial curve, poor fit]
36 | O=C(O)c1ccc(NC(=O)c2cn(-c3ccccc3)nc2-c2ccc(Cl)cc2)cc1 | inconclusive: 10 µM [inhibitor, single point]
37 | COc1ccc(S(=O)(=O)Nc2ccc(C)cc2)cc1N(C)S(=O)(=O)c1ccc(Cl)cc1 | inconclusive: 28.2 µM [inhibitor, single point]
38 | C=CCCC(=O)Nc1nc(C)c(-c2csc(Nc3ccccc3OC)n2)s1 | inactive
39 | CCOC(=O)C1CCCN(C(=O)c2cc(Nc3ccc(OC)cc3)nc3ccccc23)C1 (centres undefined) | inconclusive: 10 µM [inhibitor, partial curve, poor fit]
40 | O=C(C[C@@H]1C[C@@H]2c3cc(NS(=O)(=O)c4ccc(F)cc4)ccc3O[C@@H]2[C@H](CO)O1)N1CCc2ccccc2C1 | inactive

Row | SMILES | Potency
41 | CC1(Cc2cccc(C(F)(F)F)c2)C(=O)Nc2c(Cl)ccc(Cl)c21 (centres undefined) | inconclusive: 11.2 µM [inhibitor, partial curve, poor fit]
42 | COC(=O)C1=C(Nc2ccccc2NS(=O)(=O)c2ccc(C(F)(F)F)cc2Cl)CSC1 | inconclusive: 11.2 µM [inhibitor, single point]
43 | COc1ccc(C(=O)Cn2nnc(-c3ccccc3NC(=O)c3ccco3)n2)cc1 | inconclusive: 3.16 µM [inhibitor, full curve, poor fit]
44 | COc1ccc(OCc2cc(C(=O)N(C)CC3CCCCO3)no2)c(Cl)c1 (centres undefined) | inconclusive: 14.1 µM [inhibitor, partial curve, poor fit]
45 | O=C1CN(C(=O)Cc2ccc(F)cc2)C(c2ccccc2)c2cc(Cl)ccc2N1 (centres undefined) | inactive
46 | CCOc1ccccc1NC(=S)N(Cc1cc2ccc(C)cc2[nH]c1=O)CC1CCCN1CC (centres undefined) | inconclusive: 28.2 µM [inhibitor, single point]
47 | CCOc1ccc(NC(=O)N2CCN(S(=O)(=O)c3ccc4c(ccn4C)c3)CC2)cc1 | inconclusive: 28.2 µM [inhibitor, single point]
48 | COCCNC(=O)Cn1nc(N2CCN(c3ccccc3OC)CC2)ccc1=O | inactive
49 | COc1ccccc1N(CC(=O)NCCSCc1ccccc1)S(=O)(=O)c1ccc(C)cc1 | inconclusive: 15.8 µM [inhibitor, partial curve, poor fit] and inconclusive: 7.94 µM [inhibitor, partial curve, poor fit]
50 | CC1=C(C(=O)N(C)C)CC(CC(=O)NCc2cccc3ccccc23)C(=O)N1CCCN1CCCC1=O (centres undefined) | inactive
51 | COc1ccccc1-c1ccc2c(c1)C(C)(Cc1cc(Cl)ccc1C(F)(F)F)C(=O)N2 (centres undefined) | inconclusive: 11.2 µM [inhibitor, single point]
52 | CCOC(=O)c1c(-c2ccc(C)cc2)csc1NC(=O)c1ccc(N2C(=O)CCC2=O)cc1 | inactive
53 | CCn1c(=O)n(CC)c2cc(S(=O)(=O)Nc3c(C)cccc3C)ccc21 | inconclusive: 28.2 µM [inhibitor, single point]
54 | CCc1ccccc1NC(=O)c1ccc(CN2CCC(Cc3ccccc3)CC2)cc1 | active: 8.91 µM
55 | CC1=C(C(=O)N2CCCCCC2)CC(CC(=O)NCCCCc2ccccc2)C(=O)N1Cc1ccccc1 (centres undefined) | inconclusive: 10 µM [inhibitor, partial curve, poor fit]
56 | COCCn1cnc2c1c(=O)n(Cc1c(F)cccc1Cl)c(=O)n2Cc1ccccc1 | inconclusive: 14.1 µM [inhibitor, single point]
57 | COc1cc(C(=O)N/N=C/c2ccc(OC(=O)c3cccc(C)c3)c(OC)c2)ccc1O | inactive
58 | COc1ccc(CN=C2NC(=O)CC(C(=O)Nc3ccc(Cl)cc3)S2)cc1 (centres undefined) | inconclusive: 8.91 µM [inhibitor, partial curve, poor fit]
59 | Cc1cc(C)cc(N2C(=O)C=CC2=O)c1 | inconclusive: 12.6 µM [inhibitor, partial curve, poor fit]
